# Measurements as given in publication PMC4336329 (PLoS ONE, 2015).
# Hit rate of the full screen: of about 310,000 compounds, about 2,200 (0.71%) showed an effect of 50% or more. Effects have a minus sign here. Some of the results follow.
# Biological target: human ether-à-go-go-related gene (hERG) potassium channel (human, UniProt Q12809)
# Assay: primary screen, population patch clamp on CHO cells stably expressing hERG
# human ether-à-go-go-related gene (hERG) potassium channel, sequence (Q12809 whole entry, looked up): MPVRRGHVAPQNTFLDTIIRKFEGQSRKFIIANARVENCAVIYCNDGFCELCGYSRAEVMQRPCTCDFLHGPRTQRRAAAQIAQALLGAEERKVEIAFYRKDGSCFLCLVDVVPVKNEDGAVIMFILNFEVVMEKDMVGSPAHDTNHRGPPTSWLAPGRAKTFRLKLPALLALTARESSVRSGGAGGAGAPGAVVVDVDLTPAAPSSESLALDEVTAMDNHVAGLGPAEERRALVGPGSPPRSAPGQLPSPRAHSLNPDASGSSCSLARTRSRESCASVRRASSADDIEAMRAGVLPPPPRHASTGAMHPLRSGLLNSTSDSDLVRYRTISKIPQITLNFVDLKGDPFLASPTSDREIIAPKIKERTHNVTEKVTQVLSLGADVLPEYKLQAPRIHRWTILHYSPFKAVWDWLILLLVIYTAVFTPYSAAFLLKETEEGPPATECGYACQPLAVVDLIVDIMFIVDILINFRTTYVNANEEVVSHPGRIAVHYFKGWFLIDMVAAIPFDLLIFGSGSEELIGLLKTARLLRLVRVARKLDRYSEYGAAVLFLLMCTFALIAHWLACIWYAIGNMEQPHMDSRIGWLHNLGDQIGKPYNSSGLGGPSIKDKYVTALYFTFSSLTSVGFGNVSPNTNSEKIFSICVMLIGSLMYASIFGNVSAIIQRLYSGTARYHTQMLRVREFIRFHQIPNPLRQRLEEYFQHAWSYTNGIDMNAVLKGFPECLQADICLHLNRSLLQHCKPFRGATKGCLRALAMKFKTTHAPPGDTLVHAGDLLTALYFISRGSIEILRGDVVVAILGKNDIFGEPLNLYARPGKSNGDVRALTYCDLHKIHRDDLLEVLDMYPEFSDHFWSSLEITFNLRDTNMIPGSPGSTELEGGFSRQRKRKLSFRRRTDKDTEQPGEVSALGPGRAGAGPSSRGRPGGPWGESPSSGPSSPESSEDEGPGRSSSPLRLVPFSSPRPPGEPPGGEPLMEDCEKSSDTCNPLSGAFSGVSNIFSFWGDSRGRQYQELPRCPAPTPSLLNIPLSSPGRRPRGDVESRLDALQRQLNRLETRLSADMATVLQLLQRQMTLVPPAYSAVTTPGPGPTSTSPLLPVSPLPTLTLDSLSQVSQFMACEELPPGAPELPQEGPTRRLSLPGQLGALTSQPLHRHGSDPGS
row,SMILES,"hERG current change (%, negative = inhibition) at 1uM [%]"
1,CCC1CCCCN1C(=O)CCCc1ccccc1 (centres unmarked),8.6
2,CCOC(=O)CSc1nc(Nc2ccc3c(c2)OCO3)c2ccccc2n1,-1.81
3,Cc1ccc(NC(=O)O/N=C2\CCCCC2c2ccc([N+](=O)[O-])cc2[N+](=O)[O-])cc1 (centres unmarked),-9.22
4,COc1ccc(S(=O)(=O)NCC(=O)N(CC(=O)NCC2CCCO2)Cc2ccccc2)cc1 (centres unmarked),10.4
5,COCCn1c(-c2ccc(C)cc2)nc2oc3cc(OC)ccc3c(=O)c2c1=O,15
6,CCOC(=O)C1=C(NC#N)OC(C)=C(C)C1c1ccc(O)cc1 (centres unmarked),9.41
7,CN1CCN(C(=O)COCc2cc(-c3ccc4c(c3)OCO4)on2)CC1,13
8,COc1ccc(NC2=NC(=S)N(c3cccc(C)c3)C23CCCCC3)cc1,2.15
9,CCCNc1nc2c(c(=O)n(C)c(=O)n2C)n1CCC(C)C,3.46
10,CCn1cc(C(=O)O)c(=O)c2cnc(N3CCNCC3)nc21,-47.7
11,O=C(CCn1c(=S)[nH]c2cc3c(cc2c1=O)OCO3)NCc1ccccc1Cl,14.3
12,Cc1nc(C(=O)Nc2ccc(F)cc2)nn1-c1ccc([N+](=O)[O-])cc1,-33.8
13,CC(C)CCNC(=O)c1ccc(Cl)c(N)c1,9.97
14,COc1ccc(-c2csc(C)n2)cc1OC,-0.0122
15,COc1ccc(C(=O)Nc2cnn(Cc3ccc(Cl)cc3)c2)cc1OC,-6.73
16,CCCCCCCOc1ccc(C(=O)Nc2cccnc2)cc1,16.1
17,CN(CC(=O)Nc1ccc(F)c(Cl)c1)S(=O)(=O)c1cccc2nsnc12,-11.6
18,COc1ccc(-c2nn(CC(=O)NCCc3ccccc3)c(=S)n2C)cc1,7.98
19,O=C(CSc1nnc(-c2cccs2)n1CC1CCCO1)c1cc2ccccc2o1 (centres unmarked),2.49
20,Cc1cccc(Nc2nc(N)nc(CN3CCN(c4ccccc4F)CC3)n2)c1,-45.8

row,SMILES,"hERG current change (%, negative = inhibition) at 1uM [%]"
1,COc1cc2nc(C3CCC3)n(NC(=O)c3ccco3)c(=O)c2cc1OC,6.35
2,CCSc1ccccc1-c1nc(-c2ccncc2)no1,6.07
3,Clc1cc(Cl)cc(Nc2ncn[nH]2)c1,-7.88
4,O=C(c1sc(N2CCOCC2)nc1-c1ccccc1)N1CCCCC1,23.6
5,COC(=O)c1ccc(Cn2cc(/C=C\[N+](=O)[O-])c3ccccc32)o1,19.2
6,CC(=O)c1cc(Cc2csc(C(C)=O)c2)cs1,5.44
7,COC(=O)c1ccc(CSc2nnc(-c3ccncc3)o2)cc1,15
8,COCC(=O)N1CCC(Oc2ccc(C(=O)N3CCCCCCC3)cc2)CC1,15.3
9,COc1ccc(CCNC(=O)c2cc(-c3ccccc3OC)on2)cc1OC,5.24
10,O=[N+]([O-])c1cccc(-c2nnc(-c3ccccc3)o2)c1,17
11,N#CCCSCc1ccc(OCC(=O)O)cc1,5.2
12,CC1(Cc2cn(CCC#N)c3ccccc23)OCCO1,9.39
13,CC(=O)OCCOCn1cnn2c(=O)c(Br)c(C)nc12,2.99
14,COc1ccc(NC(=O)CSc2nc3[nH]ncc3c(=O)n2-c2ccccc2C)cc1OC,10.5
15,N#CCC(=O)N/N=C/c1c2ccccc2cc2ccccc12,8.78
16,Cc1ccccc1NC(=O)Cc1nc(COC(=O)c2cc([N+](=O)[O-])ccc2N)cs1,-1.61
17,COc1cc(C(=O)NCCC(=O)NC(C)C)cc(OC)c1OC,11.8
18,CCOC(=O)COn1c(=O)c[n+]([O-])c2ccccc21,4.22
19,Cc1cc(C)n(-c2ccc(C(=O)OCC(=O)Nc3ccc(Cl)cc3[N+](=O)[O-])cc2)n1,15.9
20,O=C1C2CC=CCC2C(=O)N1c1nc2n(n1)C(c1ccccc1)CC(c1ccccc1)N2 (centres unmarked),-5.26

row,SMILES,"hERG current change (%, negative = inhibition) at 1uM [%]"
1,COc1cc(C(=O)NCCc2ncccc2C)ccc1OC1CCN(C(C)=O)CC1,20.3
2,CCOC(=O)CSc1nc(N2CCOCC2)c2c(c1C#N)CC(C)(C)N(C)C2,-5.97
3,CCOC(=O)N/N=C/c1ccc(F)cc1F,16.1
4,Cc1ccc(C(=O)N2CCc3cc4c(cc3C2C)OCCCO4)cc1 (centres unmarked),17.4
5,Cc1cc(C(=O)NCc2ccco2)on1,5.08
6,O=C(CCC(=O)Nc1ccccc1Cl)NNC(=O)c1ccco1,14.5
7,O=C(Nc1nc(-c2ccccc2)cs1)C1COc2ccccc2O1 (centres unmarked),3.26
8,COc1ccccc1CN1[C@@H](CC(=O)O)c2cc(F)ccc2S1(=O)=O,13.9
9,CN(CC(=O)Nc1ccccc1Cl)C(=O)CSc1nc2ccccc2s1,12.6
10,FC(F)(F)c1ccc(C2NCCc3sccc32)cc1 (centres unmarked),-3.93
11,CCN(CC(=O)Nc1ccc(S(N)(=O)=O)cc1)S(=O)(=O)c1cc(C)ccc1OC,3.66
12,Cc1ccccc1NC(=O)C1CC(Cl)=CCC1C(=O)O (centres unmarked),-13
13,CCC1CCCCN1C(=O)c1ccc2nc(Cc3ccc(OC)cc3)oc2c1 (centres unmarked),16
14,CC(=O)N1CCCc2cc(S(=O)(=O)N3CCCC3)ccc21,9.93
15,C=CCN=C(NC#N)SCC(=O)c1cccc(OC)c1,8.31
16,Cc1c(NC(=O)c2cnc(Cl)c(Cl)c2)c(=O)n(-c2ccccc2)n1C,10.8
17,COc1ccc(-c2nc3cc(C)ccn3c2NCC2CCCO2)cc1OC.Cl (centres unmarked),-55.3
18,Cc1ccnc(NC(c2ccccc2O)c2oc(CO)cc(=O)c2O)c1 (centres unmarked),2.02
19,O=C(CNc1ccccc1OC(F)F)N1CCc2ccccc21,18.8
